Measured values reported in the supplement of paper PMC3334620.
Whole data set: some 33,000 sequences, median “E-score (-0.5 to 0.5)” near -0.013, cut for the highest 2% near 0.3. Some of the results follow.

What follows are sequences tested against T1, Msn1 (UniProt P22148) (assay: PBM E-score (8-mer binding enrichment) (E-score (-0.5 to 0.5)); higher = stronger / more preferred TF binding; most listed sequences are background and not binding sites). Settings: protein concentration: 200 nM; construct: GST-full length.
T1 sequence: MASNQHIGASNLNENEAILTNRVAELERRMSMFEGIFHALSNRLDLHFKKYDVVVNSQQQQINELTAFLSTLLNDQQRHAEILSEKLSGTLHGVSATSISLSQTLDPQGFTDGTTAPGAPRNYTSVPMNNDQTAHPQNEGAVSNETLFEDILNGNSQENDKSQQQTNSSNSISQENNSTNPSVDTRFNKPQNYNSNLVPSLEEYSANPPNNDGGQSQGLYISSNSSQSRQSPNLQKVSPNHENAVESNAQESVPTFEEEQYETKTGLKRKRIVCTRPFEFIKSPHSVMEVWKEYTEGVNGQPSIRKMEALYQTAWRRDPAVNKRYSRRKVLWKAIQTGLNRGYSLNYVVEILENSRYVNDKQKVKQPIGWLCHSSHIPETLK
In short: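 Universal all-10-mer Agilent arrays, fresh or stripped once, were converted to double-stranded form by primer extension. GST-tagged yeast transcription factors from PURExpress in vitro transcription/translation, full-length or DNA-binding domain only, were applied at about 100-200 nM and detected with fluorescent anti-GST. After masliner normalisation, the Universal PBM Analysis Suite scored each ungapped eight-base word together with its reverse complement by E-score.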

First: AAGGGAAT
Second: ATTCCACC
The “PBM E-score” value of the first is lower: -0.00497 for the first, 0.189 for the second.

Compared with GAGCCGAA, CAAGGCAG is lower in “PBM E-score” value: 0.144 for the first, -0.214 for the second.

Compared with AGGCGTGA, CCTCAAGG is lower in “PBM E-score” value: -0.0733 for the first, -0.109 for the second.

Compared with TGGCGTAA, CGATCCAC is higher in “PBM E-score” value: -0.29 for the first, -0.0959 for the second.

First: ATGCAGGC
Second: AAAGAGGC
The “PBM E-score” value of the first is higher: -0.112 for the first, -0.142 for the second.

Going from CGTAATAA to TACAGCCA, the “PBM E-score” value falls from -0.0315 to -0.128.

Compared with TTCCACAA, CGTATCGC is lower in “PBM E-score” value: 0.123 for the first, 0.0984 for the second.

Compared with CGCACTAA, ACGAGGAC is higher in “PBM E-score” value: 0.17 for the first, 0.324 for the second.

Going from ATCGAAGA to CTCCTCTC, the “PBM E-score” value falls from 0.0568 to -0.379.

Going from GCCCCCAC to CTGAACGA, the “PBM E-score” value rises from -0.309 to -0.0522.

Compared with AAGTACCG, CACGCCTG is lower in “PBM E-score” value: 0.151 for the first, -0.169 for the second.

Going from CGCATTGC to ATGCCGTA, the “PBM E-score” value rises from 0.0594 to 0.0992.

First: CGGATCAC
Second: GCCTTACA
The “PBM E-score” value of the first is higher: 0.181 for the first, -0.25 for the second.

Going from AGTAAGCG to AAGTTCTC, the “PBM E-score” value rises from -0.082 to -0.0185.

First: CCACCGTC
Second: TATGCTAA
The “PBM E-score” value of the first is lower: -0.324 for the first, -0.0132 for the second.

Compared with AGACAGCC, TATACGGA is higher in “PBM E-score” value: -0.129 for the first, 0.128 for the second.

Compared with CCCTTTAA, CCATCCGC is lower in “PBM E-score” value: 0.0255 for the first, -0.0442 for the second.

Compared with AAGTTTGT, CTCTCTCA is lower in “PBM E-score” value: 0.297 for the first, -0.17 for the second.

Going from CATCTCAC to CTCCGGCC, the “PBM E-score” value falls from -5e-05 to -0.107.

Going from CACACACC to AACCGATC, the “PBM E-score” value falls from -0.0228 to -0.193.

Going from GTCACATA to AGCACCAA, the “PBM E-score” value falls from 0.0793 to 0.0195.

Going from AAGGATTG to ACATCGTG, the “PBM E-score” value falls from 0.191 to 0.123.

Going from GACCTTCC to GACCGGTC, the “PBM E-score” value rises from -0.15 to 0.0716.

Compared with GTATGTAA, CACAATTA is higher in “PBM E-score” value: 0.0384 for the first, 0.128 for the second.

Going from ACACGGAC to CCCGTAAA, the “PBM E-score” value falls from 0.32 to -0.0814.

Going from AGGCTCCA to CATATTAG, the “PBM E-score” value rises from -0.334 to 0.193.

First: ACATGGGA
Second: GGCTTGTA
The “PBM E-score” value of the first is higher: 0.162 for the first, -0.0834 for the second.

Going from GCGGCCAA to ATTCCTGG, the “PBM E-score” value falls from -0.0597 to -0.0803.

Compared with GAAGGGGA, ATTACTAG is higher in “PBM E-score” value: -0.144 for the first, -0.127 for the second.

Going from CGTAGTTA to ATCGGGAA, the “PBM E-score” value rises from 0.0295 to 0.0406.

Compared with CACGCGTG, CCGATCAG is lower in “PBM E-score” value: 0.0676 for the first, 0.0559 for the second.

First: TACCCAGA
Second: ACGTTAAT
The “PBM E-score” value of the first is lower: -0.0576 for the first, 0.0889 for the second.

Compared with CACCGAAC, CCCCGTTC is lower in “PBM E-score” value: 0.0443 for the first, -0.213 for the second.

First: AACCGTAC
Second: GTAATCAC
The “PBM E-score” value of the first is lower: -0.044 for the first, 0.00376 for the second.

First: AGCGCACA
Second: GATAAGCC
The “PBM E-score” value of the first is lower: -0.144 for the first, -0.115 for the second.

Compared with ACCCACCG, CCGCTCCA is lower in “PBM E-score” value: -0.131 for the first, -0.179 for the second.

Going from AGGATCGC to CGAGTACA, the “PBM E-score” value rises from 0.0678 to 0.0998.

Compared with GCAGGCAC, ACGACCGT is higher in “PBM E-score” value: -0.252 for the first, -0.222 for the second.

Going from ACCAACAC to CCGTCCAA, the “PBM E-score” value rises from -0.0179 to 0.0386.

First: AGCGTTTG
Second: GGGCGGGA
The “PBM E-score” value of the first is lower: 0.0422 for the first, 0.106 for the second.

Going from CGGAGTGC to ACAGGGGT, the “PBM E-score” value falls from -0.0772 to -0.329.

First: AGCAGCAA
Second: TCGGGCCA
The “PBM E-score” value of the first is higher: 0.0158 for the first, -0.103 for the second.

Going from AACTCACA to CCAACCAC, the “PBM E-score” value falls from 0.0821 to 0.0536.
